{
  "source": "the supplement of paper PMC3656093",
  "note": "± gives the standard deviation of the averaged measurements. Over roughly 1,900 compounds, “CD40L-induced NF-kB luciferase activity, plate-corrected, relative to DMSO (0) and IKK inhibitor VII (-100) controls” has its median near 0.032; the lowest 2% begin near -26. The list shows a part of the results.",
  "data": [
    {"test_system": "BL2-NFkB-Luc", "assay": "CD40L-induced NF-kB luciferase activity, plate-corrected, relative to DMSO (0) and IKK inhibitor VII (-100) controls (% normalized activity); higher = more NF-kB reporter activity (less inhibition)", "details": "9.4 µM; stimulus: tCD40L 64 ng/ml; 4.5 h", "description": "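BL2 B cells with a stable NF-kB response-element luciferase reporter (BL2-NFkB-Luc), 384-well. Cells were pre-incubated with compound at 9.4 uM for 1 h at 37 C, then stimulated with 64 ng/ml trimerized CD40L for 4.5 h; luciferase was read with Steady-Glo. Signal was normalised per plate in Genedata (median DMSO neutral control = 0, median IKK inhibitor VII at 50 uM = -100) with Assay Median plate-pattern correction; duplicate plates.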", "values": [
      {"compound": "COc1cc2c3c(c1)C1(C(=O)N3C(C)(C)C=C2C)C(C#N)=C(N)Oc2cc(C)oc(=O)c21", "note": "(configuration not stated)", "CD40L-induced NF-kB luciferase activity": "4.59 ± 4.2"},
      {"compound": "COc1ccc(C(C)N2CC34C=CC(O3)C(C(=O)OCC(C)C)C4C2=O)cc1", "note": "(configuration not stated)", "CD40L-induced NF-kB luciferase activity": "-1.13 ± 5.3"},
      {"compound": "Nc1c2c(nc3ccccc13)CCCC2", "CD40L-induced NF-kB luciferase activity": "-2.63 ± 2.6"},
      {"compound": "CCNC(=O)c1c(N)sc2c1CCCCC2", "CD40L-induced NF-kB luciferase activity": "2.16 ± 2.4"},
      {"compound": "O=C1OC(Nc2ccc3c(c2)OCO3)c2ccccc21", "note": "(configuration not stated)", "CD40L-induced NF-kB luciferase activity": "-15.2 ± 0.48"},
      {"compound": "COc1cc2cc(C(=O)O)n(C)c2c(OC)c1OC", "CD40L-induced NF-kB luciferase activity": "2.66 ± 1.5"},
      {"compound": "CCOC(=O)C(NC(C)=O)C(O)c1ccc([N+](=O)[O-])cc1", "note": "(configuration not stated)", "CD40L-induced NF-kB luciferase activity": "-1.16 ± 2.7"},
      {"compound": "Nc1ccc2cn[nH]c2c1", "CD40L-induced NF-kB luciferase activity": "-3.23 ± 2.4"},
      {"compound": "CCN(CC)C(=S)SSC(=S)N(CC)CC", "CD40L-induced NF-kB luciferase activity": "10.1 ± 1.5"},
      {"compound": "COCCOC(=O)C1=C(N)OC2=C(C(=O)CCC2)C1c1cccnc1", "note": "(configuration not stated)", "CD40L-induced NF-kB luciferase activity": "-3.03 ± 0.28"},
      {"compound": "Cc1oc(C=NNC(=O)CC2(C)OCCO2)cc1Br", "CD40L-induced NF-kB luciferase activity": "-0.742 ± 2.4"},
      {"compound": "c1ccc(-c2ccccn2)nc1", "CD40L-induced NF-kB luciferase activity": "-0.389 ± 1.8"},
      {"compound": "CC(C)Oc1ccc(C2CC(=O)N(c3ccc(C(=O)O)cc3)C2=O)cc1", "note": "(configuration not stated)", "CD40L-induced NF-kB luciferase activity": "-3.94 ± 6.9"},
      {"compound": "COc1ccc(NC(=S)NCCc2c[nH]c3ccccc23)cc1", "CD40L-induced NF-kB luciferase activity": "1.9 ± 1.1"},
      {"compound": "O=C(NCCNc1ccc(Cl)cc1[N+](=O)[O-])c1cccnc1", "CD40L-induced NF-kB luciferase activity": "5.16 ± 4.4"},
      {"compound": "C[C@]12C[C@H](O)[C@H]3[C@@H](CCC4=CC(=O)CC[C@@]43C)[C@@H]1CC[C@@H]2C(=O)CO", "CD40L-induced NF-kB luciferase activity": "-19.6 ± 8.2"},
      {"compound": "O=C(NC(Nc1ccccn1)C(Cl)(Cl)Cl)c1ccccc1", "note": "(configuration not stated)", "CD40L-induced NF-kB luciferase activity": "-4.69 ± 1.9"},
      {"compound": "O=C(O)c1cc2cc(Cl)cc(Cl)c2oc1=O", "CD40L-induced NF-kB luciferase activity": "-0.642 ± 0.68"},
      {"compound": "Oc1ccc(COCc2ccccc2)c2cccnc12", "CD40L-induced NF-kB luciferase activity": "31.8 ± 3.1"},
      {"compound": "COc1cc(CNCc2ccc(OC)c(OC)c2OC)cc(OC)c1", "CD40L-induced NF-kB luciferase activity": "-9.63 ± 3.3"},
      {"compound": "Nc1cccc(C(=O)O)c1", "CD40L-induced NF-kB luciferase activity": "0.601 ± 11"},
      {"compound": "CCN1C(=O)C(CC(=O)Nc2ccc(F)cc2)N(Cc2ccco2)C1=S", "note": "(configuration not stated)", "CD40L-induced NF-kB luciferase activity": "-6.1 ± 1.4"},
      {"compound": "COc1ccc2[nH]cc(C(=O)CCl)c2c1", "CD40L-induced NF-kB luciferase activity": "-18.7 ± 2.5"},
      {"compound": "CCC(=O)Oc1ccc(/C(CC)=C(\\CC)c2ccc(OC(=O)CC)cc2)cc1", "CD40L-induced NF-kB luciferase activity": "-2.86 ± 2"},
      {"compound": "COc1ccc(CCNC(=O)c2ccc(Cl)cc2)cc1OC", "CD40L-induced NF-kB luciferase activity": "2.7 ± 6.7"},
      {"compound": "COc1ccc2c(c1OC)C(=O)OC2C1c2c(cc3c(c2OC)OCO3)CCN1C", "note": "(configuration not stated)", "CD40L-induced NF-kB luciferase activity": "4.43 ± 1"},
      {"compound": "COc1ccc(C2N3CC4(C)CN2CC(C)(C3)C4)cc1OC", "note": "(configuration not stated)", "CD40L-induced NF-kB luciferase activity": "-1.8 ± 1.9"},
      {"compound": "O=C(NCc1ccc(N2CCCC2=O)cc1)c1cccc(Cl)c1", "CD40L-induced NF-kB luciferase activity": "0.303 ± 1.9"},
      {"compound": "Cc1ccc2c(c1)c1c3n2CCCNC3CCC1", "note": "(configuration not stated)", "CD40L-induced NF-kB luciferase activity": "-0.763 ± 1.7"},
      {"compound": "C[C@]12CC[C@@H]3c4ccc(O)cc4CC[C@H]3[C@@H]1CC[C@@H]2OC(=O)CCC(=O)O", "CD40L-induced NF-kB luciferase activity": "4.26 ± 1.1"},
      {"compound": "CC(=O)N(CCC(Cc1ccccc1)c1ccco1)Cc1ccco1", "note": "(configuration not stated)", "CD40L-induced NF-kB luciferase activity": "-10.3 ± 3.9"},
      {"compound": "Nc1c(C(=O)c2ccccc2)oc2ccccc12", "CD40L-induced NF-kB luciferase activity": "17.3 ± 8.5"},
      {"compound": "COc1ccc(N2C(=O)[C@@H]3[C@H](C2=O)[C@H]2c4ccccc4C=CN2[C@@H]3C(C)=O)cc1", "CD40L-induced NF-kB luciferase activity": "-2.09 ± 0.85"},
      {"compound": "Cc1cc(C(C)(C)C)c(O)c(C)c1CC1=NCCN1", "CD40L-induced NF-kB luciferase activity": "-6.39 ± 2.2"},
      {"compound": "CN(C)CCCN1c2ccccc2Sc2ccccc21", "CD40L-induced NF-kB luciferase activity": "1.36 ± 1.7"},
      {"compound": "Cn1c(SCC(=O)c2ccccc2)nnc1-c1ccncc1", "CD40L-induced NF-kB luciferase activity": "11.7 ± 0.42"},
      {"compound": "C[C@]12CCC(=O)C=C1[C@H](O)C[C@@H]1[C@@H]2[C@@H](O)C[C@@]2(C)[C@H]1CC[C@]2(O)C(=O)CO", "CD40L-induced NF-kB luciferase activity": "-8.7 ± 4.6"},
      {"compound": "CCc1cc2c(=O)c(-c3ccc4c(c3)OCCO4)coc2c(CN2CCCCC2C)c1O", "note": "(configuration not stated)", "CD40L-induced NF-kB luciferase activity": "17.3 ± 6.1"},
      {"compound": "Cc1ccc(Cl)c(OCCCN(C)Cc2ccccc2)c1", "CD40L-induced NF-kB luciferase activity": "-1.15 ± 2.5"},
      {"compound": "CC(CCc1ccccc1)NCC(O)c1ccc(O)c(C(N)=O)c1", "note": "(configuration not stated)", "CD40L-induced NF-kB luciferase activity": "5.01 ± 0.12"},
      {"compound": "O=C(O)c1cccnc1Nc1cccc(C(F)(F)F)c1", "CD40L-induced NF-kB luciferase activity": "-2.71 ± 10"},
      {"compound": "COc1ccc(C(Cl)=C(c2ccc(OC)cc2)c2ccc(OC)cc2)cc1", "CD40L-induced NF-kB luciferase activity": "5.26 ± 4.2"},
      {"compound": "Cc1oncc1C(=O)Nc1ccc(C(F)(F)F)cc1", "CD40L-induced NF-kB luciferase activity": "4.6 ± 2.1"},
      {"compound": "CC[N+](C)(C)Cc1ccccc1Br", "CD40L-induced NF-kB luciferase activity": "-1.11 ± 9"},
      {"compound": "O=C(NCc1ccccc1Cl)NC(=O)c1ccccc1", "CD40L-induced NF-kB luciferase activity": "7.34 ± 5.7"},
      {"compound": "CC1(C)Oc2ccc(C#N)cc2[C@@H](N2CCCC2=O)[C@@H]1O", "CD40L-induced NF-kB luciferase activity": "-6.01 ± 11"},
      {"compound": "CCN1C(=O)C(CC(=O)Nc2ccc(OC)cc2)N(CCc2ccc(F)cc2)C1=S", "note": "(configuration not stated)", "CD40L-induced NF-kB luciferase activity": "-1.13 ± 4.2"},
      {"compound": "c1ccc2c(c1)CCOC2CNCCCN1CCCCC1", "note": "(configuration not stated)", "CD40L-induced NF-kB luciferase activity": "-0.411 ± 1.1"},
      {"compound": "OCCC1CN(Cc2nc(-c3ccccc3)cs2)CCN1Cc1ccc(F)cc1", "note": "(configuration not stated)", "CD40L-induced NF-kB luciferase activity": "-9.83 ± 5.8"},
      {"compound": "N/C(Cc1ccc(Cl)cc1Cl)=N\\OC(=O)c1ccc(Br)o1", "CD40L-induced NF-kB luciferase activity": "-0.0921 ± 1.1"},
      {"compound": "CN(Cc1c(C(=O)N(C)Cc2ccccc2)nc2ccccn12)CC1Cc2ccccc2O1", "note": "(configuration not stated)", "CD40L-induced NF-kB luciferase activity": "-6.37 ± 6.3"},
      {"compound": "[N-]=[N+]=N[C@@H]1C[C@H](n2ccc(=O)[nH]c2=O)O[C@@H]1CO", "CD40L-induced NF-kB luciferase activity": "2.68 ± 1.4"},
      {"compound": "Nc1nc(Cl)nc2c1ncn2[C@H]1C[C@H](O)[C@@H](CO)O1", "CD40L-induced NF-kB luciferase activity": "0.0575 ± 1.9"},
      {"compound": "O=C(O)[C@@H](O)c1ccccc1", "CD40L-induced NF-kB luciferase activity": "-1.47 ± 0.027"},
      {"compound": "CC(=O)c1c(N)nc2n(c1=O)CCCCC2", "CD40L-induced NF-kB luciferase activity": "-0.416 ± 0.94"},
      {"compound": "CC/C(=C1/C(=O)CC(C)(C)C(C(=O)OC)C1=O)N1CCCC1", "note": "(configuration not stated)", "CD40L-induced NF-kB luciferase activity": "-2.64 ± 9.9"},
      {"compound": "CCN(CC)CCN1C(=O)C(=O)/C(=C(/O)c2c(C)[nH]c(C(=O)OC)c2C)C1c1cccnc1", "note": "(configuration not stated)", "CD40L-induced NF-kB luciferase activity": "0.413 ± 0.55"}
    ]}
  ]
}
